Results on 86 compounds are retold here after ChEMBL document CHEMBL4888484, “Replenishing the malaria drug discovery pipeline: Screening and hit evaluation of the MMV Hit Generation Library 1 (HGL1) against asexual blood stage Plasmodium falciparum ,using a nano luciferase reporter read-out” (2022).

Among all 150,000 compounds or so, about 540 (0.36%) showed an effect of 50% or more. The list shows a part of the results.

The test has as its system Plasmodium falciparum. As to the kind of experiment: Primary screen in NF54 nanoGlo assay, in single point, at 2uM, 72h; a lower Z score goes with more inhibition. The following applies: timepoint 72 hour. In kind it is functional, Erythrocyte.
Broadly, the % Inhibition is the relative decrease from the control value, in per cent. Take `O=C(CC[C@@H]1N=C(O)N(Cc2ccco2)C1=O)NCCc1ccc(Cl)cc1`: the “% Inhibition” value is on record as 16% and the Z score is reported as -2.05.
In the case of `CC(C)OCCC(=O)N[C@H](C#N)c1ccccc1F`, the “% Inhibition” value is on record as -8% and the Z score worked out at 1.07.
On the same counts, the results for `Cc1cnc(CCNC(=O)c2ccnn2C)n1C1CCCC1` are -7% and 1.03.
In the case of `COc1cc(CNCCN2CCOCC2)ccc1OCc1cccc(C)c1`, the “% Inhibition” value is given as 42% and the Z score was -5.6.
Regarding `CCc1nn(-c2ccccc2)c(Oc2ccc(C)cc2)c1CN(CC1CC1)C[C@H](O)COC(C)C`, the “% Inhibition” value is 9% and the Z score is listed as -1.34.
For the compound `COc1ccc2c(c1)[C@H](C(=O)Nc1nc(C)nn1C)CC2`, the “% Inhibition” value was -4% and the Z score is on record as 0.48.
With `Cc1cc(=O)cc(C(=O)N2CCC[C@H](C(C)(C)C)CC2)[nH]1`, the “% Inhibition” value is given as -24% and the Z score stood at 2.58.
On the same counts, the results for `CC(C)c1noc(OCC(=O)Nc2ccccc2)n1` are -7% and 1.05.
For the compound `COc1ccc(-c2cc(N3CCC[C@H](NC(=O)C4CCN(C(C)=O)CC4)C3)[nH]n2)cc1`, the “% Inhibition” value was -13% and the Z score is listed as 1.33.
On the same counts, the results for `Nc1c(-c2ccccc2F)ncnc1N1CCCCC1` are 4% and -0.5.
For `COCCn1cc(S(=O)(=O)N2CCC[C@H]3CCCC[C@H]32)cn1` the same measures were -10% and 1.15.
For `Cc1ccc2c(c1)[nH]c(=O)c1c(C(=O)NCc3ccccn3)nnn12` the same measures were -1% and 0.11.
Turning to `FC(F)Cn1nccc1-c1nc(C2(c3ccncc3)CCC2)no1`, the “% Inhibition” value is -10% and the Z score worked out at 1.71.
With `CCOc1ncccc1CN[C@@H](C)C(=O)NC1CCCC1`, the “% Inhibition” value is given as -7% and the Z score was determined as 1.16.
On to `O=C(NCc1ccncc1)c1cn(C2CN(C(=O)C3CCCCC3)C2)nn1`, for which the “% Inhibition” value is -7% and the Z score is recorded as 1.4.
Consider `NC(=NCc1ccc(O)c(F)c1)N1CCN(c2ccccn2)CC1`, for which the “% Inhibition” value amounted to 5% and the Z score was -0.66.
As for `COc1ccccc1CCNC(=O)c1ccc(Cn2c(C)nc3ccccc32)o1`, the “% Inhibition” value is -3% and the Z score came to 0.54.
As for `CCNc1cc(N2CCN(C(=O)C(C)C)CC2)nc(C)n1`, the “% Inhibition” value is reported as -4% and the Z score turned out to be 0.65.
For the compound `CCN(CC)c1ccc(NC(=O)c2nn(-c3ccc(F)cc3)cc2OC)c(C)c1`, the “% Inhibition” value is recorded as 15% and the Z score was -2.29.
On to `COCCC1(CNC(=O)NCc2ncc(C)s2)CCCC1`, for which the “% Inhibition” value was -11% and the Z score was determined as 1.
With `Cc1ccccc1OC[C@H](O)C(=O)NCCCc1nc(C)c(C)s1`, the “% Inhibition” value was -11% and the Z score was 1.64.
For `COCc1ccc(C(=O)N2CC[C@H]2c2cccc(OC)c2)o1`, the “% Inhibition” value is recorded as -8% and the Z score is 1.42.
With `Cc1cccc2c1N(Cc1cnc(-c3cccnc3)s1)CC2`, the “% Inhibition” value was -11% and the Z score was 2.04.
On to `CCCN1CCCN(C(=O)c2ccc(NC(=O)C3CC3C)cc2)CC1` (configuration not stated), for which the “% Inhibition” value is listed as -12% and the Z score is 1.
On the same counts, the results for `CCN(CC)S(=O)(=O)c1ccc2c(c1)cc(C(=O)N1CCC(C)CC1)n2C` are -11% and 1.56.
With `Cc1ccc2sc(-c3ccc(N4C(=O)C5C6CCC(C6)C5C4=O)cc3)nc2c1` (configuration not stated), the “% Inhibition” value is reported as -10% and the Z score is 1.18.
In the case of `CCOc1ccc(NC(=O)Cn2nc(N3CCC(C)CC3)c3ccccc3c2=O)cc1`, the “% Inhibition” value is reported as -2% and the Z score came to 0.29.
For `CC(C)N(C(=O)CN(C)CCc1ccccn1)C(C)C` the same measures were 4% and -0.5.
For `OCC1(NCc2cc(F)ccc2Br)CC1`, the “% Inhibition” value is recorded as -18% and the Z score came to 2.06.
For the compound `CN(CCCNC(=O)C1CCN(c2ncnc3c2nc2n3CCCCC2)CC1)Cc1ccccc1`, the “% Inhibition” value is -15% and the Z score is given as 2.78.
With `COCCn1nnnc1[C@]1(N2CCOCC2)CCCN(C(=O)c2ccoc2C)C1`, the “% Inhibition” value was -2% and the Z score was found to be 0.21.
On to `O=C(CC1CCOCC1)N1CCCCC[C@H]1c1noc(-c2ccccc2)n1`, for which the “% Inhibition” value was 0% and the Z score turned out to be 0.
Take `NS(=O)(=O)c1ccc(CNc2nn3cc(-c4ccccc4)nc3s2)cc1`: the “% Inhibition” value amounted to 18% and the Z score is listed as -2.27.
As for `Cc1ccc(-n2ncc3c2CC(C)(C)C[C@@H]3NC(=O)c2n[nH]c(=O)c3ccccc23)cc1`, the “% Inhibition” value is listed as -1% and the Z score is 0.07.
`Cc1ccc(CN2C(=O)c3oc4ccccc4c3OC[C@@]2(C)C(=O)NC2CCCC2)cc1`: the “% Inhibition” value is -4% and the Z score is given as 0.52.
For `Cc1cc(OCc2ccccc2Cl)c2nncn2n1`, the “% Inhibition” value came out at 0% and the Z score worked out at 0.03.
As for `CCS(=O)(=O)N[C@@H](C)c1ccc(C)cc1C`, the “% Inhibition” value was 4% and the Z score is on record as -0.84.
For `Cc1cc(C)cc([C@@H](O)CNC(=O)NCC(C)(C)c2ccncc2)c1`, the “% Inhibition” value came out at 30% and the Z score is recorded as -4.4.
On the same counts, the results for `O=C(C1=CCC1)N1Cc2cccc(F)c2C1` are -19% and 1.64.
For the compound `COc1ccc(OCc2nc(C)cc(=O)n2CC(=O)Nc2cc(C(F)(F)F)ccc2Cl)cc1`, the “% Inhibition” value was determined as 32% and the Z score was -3.6.
As to `Cc1nc2sc([C@H](c3cccs3)N3CCC4(CC3)OCCO4)c(O)n2n1`, the “% Inhibition” value is reported as -2% and the Z score is 0.39.
On the same counts, the results for `Cc1nc2sc3c(n2c1C(=O)N(C)C)CC[C@H](C)C3` are 8% and -0.98.
For `Cn1nc(-c2cnccn2)cc1CNC(=O)c1ccc(Cl)s1` the same measures were 13% and -1.67.
`O=S(=O)(N[C@H]1[C@@H]2COC[C@@H]21)[C@H]1C[C@@H]1c1ccccc1`: the “% Inhibition” value was -5% and the Z score worked out at 0.89.
Turning to `CC1CN(C(=O)c2cn(C)nc2-c2ccc(F)cc2F)CC(C)N1` (configuration not stated), the “% Inhibition” value turned out to be 3% and the Z score was -0.33.
On to `O=C(NC1CCS(=O)(=O)C1)C1C2CCCC21` (configuration not stated), for which the “% Inhibition” value stood at 2% and the Z score is reported as -0.3.
For `Cc1cccc(-c2nc(C)c(Cc3ccccc3)c(N3CCN(C(=O)c4cccs4)CC3)n2)c1` the same measures were -8% and 1.18.
As to `Cc1cc(C)n(-c2ccc(C(=O)N3CCCC[C@@H]3C(=O)O)cc2)n1`, the “% Inhibition” value is -8% and the Z score was 1.21.
Consider `O=C(NCCN1CCC(CO)CC1)c1cn[nH]c1`, for which the “% Inhibition” value came to 2% and the Z score is -0.34.
Take `CC(=O)c1ccc(N2CCOCC2)c(-c2cnn(Cc3ccccc3)c2)c1`: the “% Inhibition” value is on record as -5% and the Z score was found to be 0.98.
Turning to `N#Cc1cccc(S(=O)(=O)Nc2ccnn2C2CCCC2)c1`, the “% Inhibition” value was determined as 7% and the Z score was -1.23.
For the compound `CNC(=O)Cc1c(Cl)cccc1Cl`, the “% Inhibition” value was determined as 33% and the Z score is on record as -0.34.
On the same counts, the results for `CC(C)(C)[C@@H]1CN(C(=O)c2ncncc2Cl)CCO1` are 3% and -0.54.
`CC(C)CC(=O)N(Cc1ccc(OS(=O)(=O)C(C)C)cc1)C(C)C`: the “% Inhibition” value was -22% and the Z score was 1.9.
With `CCO[C@@H](C)c1ncc(C(=O)NCC2CC(F)(F)C2)s1`, the “% Inhibition” value was -9% and the Z score was 1.8.
On to `CN1CCCC(CNC(=O)c2cnns2)C1c1cccs1` (configuration not stated), for which the “% Inhibition” value was found to be 2% and the Z score is reported as -0.33.
On the same counts, the results for `C[C@@H]1CN(Cc2csc(-c3ccoc3)n2)CC(C(N)=O)O1` (some centres not stated) are 4% and -0.51.
`Nc1nc2c(s1)CN(Cc1cc(O)c3cccc(F)c3n1)CC2`: the “% Inhibition” value is reported as -7% and the Z score is recorded as 1.32.
On the same counts, the results for `Cc1cc(Br)cc2c1NC(=O)C2(O)N1CCCC(C)C1` (configuration not stated) are -5% and 0.84.
For the compound `CC(C)OCCCC(=O)N1CC[C@H](CO)C1`, the “% Inhibition” value came to 1% and the Z score is on record as -0.11.
Consider `COc1ccc(-c2nn3c(NCCN4CCOCC4)cc(C)nc3c2C)cc1`, for which the “% Inhibition” value worked out at 0% and the Z score is 0.06.
Regarding `CCc1cc(C(=O)NCc2ccc(N3CCC[C@H](C)C3)cc2)cc(=O)[nH]1`, the “% Inhibition” value was 5% and the Z score is -0.73.
As to `COC(=O)c1cc(Cl)cc(NC(=O)N2CC[C@]3(CCOC3)C2)c1`, the “% Inhibition” value was -43% and the Z score amounted to 5.06.
For `O=C(C1CC12CCOc1ccccc12)N1CCC(c2nnc[nH]2)C1` (configuration not stated) the same measures were 2% and -0.16.
For `Cc1n[nH]c(CN2CCC3(CCN(C4CCCC4)CC3)[C@@H](CO)C2)c1Cl` the same measures were -4% and 0.72.
On the same counts, the results for `O=C(c1ccc2nsnc2c1)N1CCC(c2ccsc2)CC1` are -9% and 1.89.
For the compound `Cc1c(S(=O)(=O)N2CCCCC2)cc(C(=O)n2ccnc2)n1C`, the “% Inhibition” value was -3% and the Z score stood at 0.36.
As to `NC(=O)c1ccc(COC(=O)C2CC3CCC2C3)cc1` (configuration not stated), the “% Inhibition” value was -12% and the Z score amounted to 2.16.
On the same counts, the results for `Cc1cc(N2CCN(c3ncc(C#N)cc3Cl)CC2)nc(C(C)C)n1` are -20% and 2.75.
`O=C1CC(C[C@H]2CCCO2)=NN1CCc1ccccn1`: the “% Inhibition” value is listed as -33% and the Z score stood at 3.88.
Turning to `Cn1cc(C(=O)N[C@H]2C[C@H](CO)C2)c(-c2ccncc2)n1`, the “% Inhibition” value is reported as -6% and the Z score amounted to 0.98.
For `COCC1(C(=O)N[C@@H](C)c2ccco2)CCC1` the same measures were 4% and -0.57.
For `COc1cccc(CNC(=O)CN2CCC(C(=O)c3ccc(O)cc3)CC2)c1`, the “% Inhibition” value is -12% and the Z score amounted to 1.3.
Regarding `O=C(Cn1ncc2c([nH]c3ccccc32)c1=O)NC1CCN(Cc2ccccc2)CC1`, the “% Inhibition” value came to 2% and the Z score is on record as -0.28.
Consider `CC(=O)Nc1ccc(S(=O)(=O)NCCn2c(-c3ccncc3)nc3ccccc32)cc1`, for which the “% Inhibition” value was -3% and the Z score was determined as 0.51.
As to `N#Cc1nccnc1O[C@H]1CCN(C(=O)Cn2cnc3ccccc32)C1`, the “% Inhibition” value is -4% and the Z score came to 0.45.
For `Cn1nc2c(c1NS(C)(=O)=O)CCC2` the same measures were -6% and 1.23.
On to `CC(C)c1csc(CNC(=O)Nc2nc(C3CCC3)cs2)n1`, for which the “% Inhibition” value was determined as 7% and the Z score was -1.26.
With `Cc1ncn(C[C@H](O)C(F)(F)F)c(=O)c1C`, the “% Inhibition” value is on record as -6% and the Z score was determined as 0.87.
Take `CC(=O)/C(=N/Nc1cccc(C)c1)N1CCOCC1`: the “% Inhibition” value was -46% and the Z score is 5.37.
Consider `Cc1cnc(N2CCC(C(=O)NCCCN3CCCC3)CC2)nc1C`, for which the “% Inhibition” value was found to be 0% and the Z score turned out to be 0.04.
On the same counts, the results for `Cc1cccn2cc(COc3ccc(C(=O)NC[C@@H](CO)C4CCC4)cc3)nc12` are -12% and 2.32.
As to `Nc1c(Oc2cccc(F)c2)ncnc1-c1ccc(F)cc1F`, the “% Inhibition” value is recorded as -10% and the Z score amounted to 1.2.
`CCN1CCN(C(=O)c2ccc(Br)cn2)C(C)(C)C1=O`: the “% Inhibition” value was 29% and the Z score is reported as -3.31.
On to `Cc1cc(=O)cc(O)n1Cc1nc(N)n[nH]1`, for which the “% Inhibition” value is listed as -1% and the Z score is recorded as 0.15.
On the same counts, the results for `Cc1noc(-c2nn(C)c3c2CN(C(=O)CC(C)(C)C)CC3)n1` are 6% and -0.66.
